This is an account of results in patent publication US20230330254A1 (Regeneron, published 2023).

Test [1] concerns the target T1, full-length human gastric inhibitory polypeptide receptor on HEK293/CRE-Luc/hGIPR cells (human, UniProt P48546 22-466).
T1 sequence (looked up): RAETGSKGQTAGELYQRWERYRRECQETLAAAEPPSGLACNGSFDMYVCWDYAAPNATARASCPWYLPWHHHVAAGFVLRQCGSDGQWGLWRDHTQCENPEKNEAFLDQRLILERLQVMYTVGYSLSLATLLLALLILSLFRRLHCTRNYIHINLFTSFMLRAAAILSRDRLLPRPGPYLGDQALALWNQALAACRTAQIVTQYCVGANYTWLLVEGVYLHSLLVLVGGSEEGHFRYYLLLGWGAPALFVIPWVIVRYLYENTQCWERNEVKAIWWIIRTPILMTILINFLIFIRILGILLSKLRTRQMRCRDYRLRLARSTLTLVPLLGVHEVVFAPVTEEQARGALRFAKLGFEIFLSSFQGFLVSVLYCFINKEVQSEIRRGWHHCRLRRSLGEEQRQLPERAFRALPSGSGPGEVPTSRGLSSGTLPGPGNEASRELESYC
Briefly: cell-based or functional assay.

In test [2] the target is T2, full-length human glucagon-like peptide 2 receptor on HEK293/CRE-Luc/hGLP2R cells (human, UniProt O95838 1-553).
T2 sequence (looked up): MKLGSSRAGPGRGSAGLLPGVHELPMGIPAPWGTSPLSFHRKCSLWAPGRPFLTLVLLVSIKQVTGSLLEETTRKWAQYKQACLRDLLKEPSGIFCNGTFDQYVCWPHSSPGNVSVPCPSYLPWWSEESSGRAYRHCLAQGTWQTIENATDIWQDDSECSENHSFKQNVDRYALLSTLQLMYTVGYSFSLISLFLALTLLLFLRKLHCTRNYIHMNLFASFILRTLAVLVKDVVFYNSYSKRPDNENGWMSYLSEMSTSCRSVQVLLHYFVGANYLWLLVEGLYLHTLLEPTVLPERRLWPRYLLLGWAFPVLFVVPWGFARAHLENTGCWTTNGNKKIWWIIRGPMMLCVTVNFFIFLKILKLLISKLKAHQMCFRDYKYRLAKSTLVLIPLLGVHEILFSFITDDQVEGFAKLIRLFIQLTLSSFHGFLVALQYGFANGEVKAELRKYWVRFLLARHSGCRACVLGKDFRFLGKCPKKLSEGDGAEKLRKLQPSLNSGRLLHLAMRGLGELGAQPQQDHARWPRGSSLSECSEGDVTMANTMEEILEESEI
Briefly: cell-based or functional assay.

The target of test [3] is full-length human glucagon receptor on HEK293/CRE-Luc/hGCGR cells (human, UniProt P47871 26-477). Briefly: cell-based or functional assay.
Sequence of UniProt P47871 (P47871 26-477): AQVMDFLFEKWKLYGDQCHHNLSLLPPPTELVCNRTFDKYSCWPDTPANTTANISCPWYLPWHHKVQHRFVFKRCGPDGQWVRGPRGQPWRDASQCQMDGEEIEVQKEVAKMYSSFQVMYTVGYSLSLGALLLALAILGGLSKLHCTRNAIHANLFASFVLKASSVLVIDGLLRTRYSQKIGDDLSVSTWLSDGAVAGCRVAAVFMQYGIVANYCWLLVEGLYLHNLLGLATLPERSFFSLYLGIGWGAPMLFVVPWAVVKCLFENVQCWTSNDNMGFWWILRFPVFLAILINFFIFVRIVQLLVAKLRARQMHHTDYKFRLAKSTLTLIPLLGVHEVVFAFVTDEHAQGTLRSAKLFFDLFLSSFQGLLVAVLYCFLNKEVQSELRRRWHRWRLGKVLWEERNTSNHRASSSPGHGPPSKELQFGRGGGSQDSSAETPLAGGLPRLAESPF
Test [4] concerns the target T3, full-length human GLP1R on HEK293/CRE-Luc/hGLP1R cells (human, UniProt P43220 24-463). Briefly: cell-based or functional assay.
Test [5] concerns the target T4, full-length cynomolgus GLP1R on HEK293/CRE-Luc/mfGLP1R cells (cynomolgus, UniProt F8V479 24-463). Briefly: cell-based or functional assay.
Test [6] deals with T3, full-length human GLP1R on …. Briefly: cell-based or functional assay. This is another data set of the same source.
For test [7] the target is unchanged. In words: flow cytometry, hGLP1R cells.
The target is the same in test [8]. Briefly: cell-based or functional assay. The source holds these as a separate data set.
For test [9], the target named is T5, N-terminal ectodomain of human GLP1R expressed with a myc-myc hexahistidine tag (human, UniProt P43220 24-145, limits assumed).
T5 construct: extracellular domain; also called hGLP1R-MMH; hGLP1R.mmh
In words: SPR, captured via anti-hFc, 25 C.

Test [10] addresses T4, full-length cynomolgus GLP1R on …. Briefly: flow cytometry, mfGLP1R cells.

Like-named read-outs stand apart in the source and are kept apart here.

B1: REGN5619-M3190 (antibody, human IgG4 S228P, kappa)
heavy: EVQLVESGGGLVQPGGSLKLSCAASGFTFSGSAMHWVRQASGKGLEWVGRITSKANSYATAYDASVKGRFTISRDDSKNTAYLQMNSLKTEDTAVYYCTRQRFLEFLFLDYWGQGTLVTVSSASTKGPSVFPLAPCSRSTSESTAALGCLVKDYFPEPVTVSWNSGALTSGVHTFPAVLQSSGLYSLSSVVTVPSSSLGTKTYTCNVDHKPSNTKVDKRV[human IgG4 Fc with S228P (EU numbers) left out here]
light: [about 100 residues left out here][about 120 residues left out here]
modifications: linker-payload M3190 (LP11) on Gln 3 of the N-terminal Q-tag LLQGSG
notes: antibody-tethered drug conjugate; also called REGN5619 ATDC; Anti-GLP1R mAB2 LP11
Regarding B1, in test [1], the “CRE-luc EC50” value is above 200 nM. Further, the “CRE-luc EC50” value in test [2] was above 200 nM. In addition, the “CRE-luc EC50” value in test [3] is above 200 nM. Further, in test [4], the “CRE-luc EC50” value is 0.0412 nM. Besides, the “CRE-luc EC50” value in [5] came out at 0.0373 nM. Also, in test [6], the “CRE-luc EC50” value amounted to 0.0273 nM, the “CRE-luc Relative Potency (% P8 EC50)” value stood at 59.5%, the “CRE-luc Relative Signal:Noise (% P8)” value was determined as 158% and the “CRE-luc S/N” value is 102 fold. In test [7], the EC50 was found to be 3.18 nM and the “Flow S/N” value worked out at 173 fold. In addition, in test [8], the “CRE-luc EC50 of ATDC, 0 nM unconjugated mAb” value came to 0.03 nM; the “CRE-luc EC50 of ATDC, +0.01 nM unconjugated anti-GLP1R mAb” value is 0.024 nM; the “CRE-luc EC50 of ATDC, +0.1 nM unconjugated anti-GLP1R mAb” value was determined as 0.027 nM; the “CRE-luc EC50 of ATDC, +1 nM unconjugated anti-GLP1R mAb” value stood at 0.029 nM. Further, in test [8], the “CRE-luc EC50 of ATDC, +10 nM unconjugated anti-GLP1R mAb” value is 0.044 nM; the “CRE-luc EC50 of ATDC, +100 nM unconjugated anti-GLP1R mAb” value was 0.12 nM; the “EC50 fold-change vs ATDC alone, 0 nM unconjugated mAb” value stood at 1 fold; the “EC50 fold-change vs ATDC alone, +0.01 nM unconjugated mAb” value stood at 0.8 fold. In test [8], the “EC50 fold-change vs ATDC alone, +0.1 nM unconjugated mAb” value is 0.9 fold; the “EC50 fold-change vs ATDC alone, +1 nM unconjugated mAb” value was 1 fold; the “EC50 fold-change vs ATDC alone, +10 nM unconjugated mAb” value came to 1.5 fold; the “EC50 fold-change vs ATDC alone, +100 nM unconjugated mAb” value was 4 fold. Moreover, in test [9], the “90 nM hGLP1R.mmh Bound (RU)” value came out at 35.3 RU; the affinity, expressed as Kd, was 175 nM; the koff was found to be 0.0269 s⁻¹; the kon is 154000 M⁻¹ s⁻¹. In test [9], the t1/2 was 24 s. In test [10], the EC50 came out at 2.28 nM and the “Flow S/N” value came out at 128 fold.

B2: REGN5619 (antibody, human IgG4 S228P, kappa)
heavy: EVQLVESGGGLVQPGGSLKLSCAASGFTFSGSAMHWVRQASGKGLEWVGRITSKANSYATAYDASVKGRFTISRDDSKNTAYLQMNSLKTEDTAVYYCTRQRFLEFLFLDYWGQGTLVTVSSASTKGPSVFPLAPCSRSTSESTAALGCLVKDYFPEPVTVSWNSGALTSGVHTFPAVLQSSGLYSLSSVVTVPSSSLGTKTYTCNVDHKPSNTKVDKRV[human IgG4 Fc with S228P (EU numbers) left out here]
light: [about 100 residues left out here][about 120 residues left out here]
notes: IgG4; Q-tag on light chain N-terminus; also called mAb 2; REGN5619 unconjugated Ab
On to B2, for which, in test [7], a half-maximal effect (EC50) was put at 5.68 nM and the “Flow S/N” value is 240 fold. In test [10], the EC50 was 2.19 nM and the “Flow S/N” value came out at 155 fold.

B3: Anti-GLP1R mAB6 conjugated to LP11 (antibody, human IgG4 S228P, kappa)
heavy: LLQGSGEVQLVESGGGLVQPGGSLKLSCAASGFTFSGSAMHWVRQASGKGLEWVGRITSKANSYATAYDASVKGRFTISRDDSKNTAYLQMNSLKTEDTAVYYCTRQRFLEFLFLDYWGQGTLVTVSSASTKGPSVFPLAPCSRSTSESTAALGCLVKDYFPEPVTVSWNSGALTSGVHTFPAVLQSSGLYSLSSVVTVPSSSLGTKTYTCNVDHKPSNTKVDKRV[human IgG4 Fc with S228P (EU numbers) left out here]
light: [about 100 residues left out here][about 120 residues left out here]
modifications: linker-payload LP11 (M3190) on Gln 3 of the N-terminal Q-tag LLQGSG
Regarding B3, in test [6], the “CRE-luc EC50” value is 0.112 nM, the “CRE-luc Relative Potency (% P8 EC50)” value was 14.5%, the “CRE-luc Relative Signal:Noise (% P8)” value was 97.1% and the “CRE-luc S/N” value worked out at 62.5 fold.
